Reference: PubChem BioAssay AID652104 (National Center for Advancing Translational Sciences (NCATS), 2013)
The campaign covered roughly 410,000 compounds. About 7,200 (1.8%) were called active. The inconclusive results got no clear call from the source; some entries with a clear call stand among them for comparison. Calls come from the whole dose curve; as a rule, active = well fitted activation curve with a large enough effect; inconclusive = small, poorly fitted or top-dose-only effect, or another doubt; inactive = no such curve, though single readings can be large or run the other way. Where the call is inconclusive, the potency comes from a doubtful curve fit.

experiment: qHTS of TDP-43 Inhibitors; conditions: TDP-43 expressing yeast growth rescue, BacTiter-Glo, 24 h; growth rescue (activation): at 46.1 µM (top of the series) unless noted; note: nearly all actives have a fitted effect of over 50% in size; for growth rescue (activation): % of control where 0% means no effect
Outline: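 Readout is BacTiter-Glo luminescence of cell growth, so inhibitors register as activators. TDP-43-expressing yeast at OD600=0.02 in galactose medium, after raffinose pregrowth to mid-log, were incubated with compound for 24 hr at 30 deg C.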
Potency is the fitted concentration of half-maximal effect; tags give direction and shape of the fitted curve.

Potency, active:
O=C(CCSCc1cccc(Cl)c1)NCc1ccc(F)cc1Cl 22.4 µM
CCOc1ccc(C2=CC(=O)C[C@H](c3ccc(OC)cc3)C2)cc1 12.6 µM
Cc1ccc(OCc2cc(C(=O)N3CCC(C(O)C(C)C)CC3)no2)cc1C (stereo unspecified) 15.8 µM
Cc1cc(-n2c(C)cc(C(=O)CCl)c2C)no1 3.55 µM
CCCn1nc(C(=O)NCC2COc3ccccc3O2)c2ccccc2c1=O (stereo unspecified) 22.4 µM
O=C(CSc1nnnn1-c1ccccc1)NC1CCCc2ccccc21 (stereo unspecified) 11.2 µM
CCOC(=O)N1CCN(c2nc(C)c3c(n2)CC(C)CC3=O)CC1 (stereo unspecified) 20 µM
Cc1ccnc(Nc2nc(-c3c(C)nc4sccn34)cs2)c1 7.08 µM
COc1cccc(C(=O)Nc2nnc(-c3ccc(Cl)cc3)o2)c1 3.16 µM
CCOC(=O)c1nnc(-c2ccccc2)nc1NCc1ccc(Cl)cc1 12.6 µM
COc1ccc([C@H]2CC(=O)C=C(c3ccc(C)c([N+](=O)[O-])c3)C2)cc1 35.5 µM
O=C(CS(=O)(=O)c1cccc2nsnc12)N1CCN(c2cccc(C(F)(F)F)c2)CC1 20 µM
C=CCNC1=C(Cl)C(=O)N(c2cccc(Cl)c2Cl)C1=O 15.8 µM

Potency, inactive:
COc1ccc(CSCC(=O)N/N=C/c2ccc(OCC(=O)NCc3ccco3)cc2)cc1
Cc1nc2sccc2c(=O)n1-c1cccc(Cl)c1
Cc1ccc(NC(=O)N2CC3CCCN3c3ccccc32)c(C)c1 (stereo unspecified)
CNC(=O)CC1C(=O)N(Cc2ccccc2)C(=S)N1NC(=O)c1cccc(F)c1 (stereo unspecified)
COc1ccc(NC(=O)CCc2nnc3n(Cc4ccccc4Cl)c(=O)c4ccccc4n23)cc1
CC1CCCN(C(=O)CSc2nnc(-c3cccs3)o2)C1 (stereo unspecified)
CCN(CC)c1ccc2c(c1)oc(=O)c1c(Cl)cc(=O)oc12
Cn1cc(CN2CCC(C(=O)Nc3ccc(Oc4ccccc4F)cc3)CC2)cn1
Cc1ccc(S(=O)(=O)N2CCN(Cc3nc4ccc(C)cc4o3)CC2)cc1
O=C(Cn1cc(S(=O)(=O)c2ccccc2)c(=O)c2cc3c(cc21)OCO3)Nc1ccc(Cl)cc1
COc1ccc(OC)c(NC(=O)c2c(NC(=O)CNCc3ccco3)sc3c2CCC3)c1
O=C(OCCOc1cccc(Cl)c1)c1cc(S(=O)(=O)N2CCOCC2)ccc1F
CC(=O)N1c2ccc(S(=O)(=O)N3CCCC(C(=O)N4CCCCC4)C3)cc2CC1C (stereo unspecified)

Potency, inconclusive:
CCc1ccccc1NC(=O)c1sc2nc(C)cc(COC)c2c1N 35.5 µM [activator, single point]
O=C(OCc1cc(Cl)cc2c1OCOC2)c1cccnc1Cl 7.94 µM [activator, partial curve]
Cc1c(Cl)cccc1NC(=O)CSc1nc2ncccc2o1 12.6 µM [activator, partial curve, poor fit]
O=C(Nc1cccc(S(=O)(=O)N2CCOCC2)c1)c1cnn2c(C(F)F)cc(-c3ccccc3)nc12 5.62 µM [activator, partial curve]
Cc1nn(CC(O)COc2ccc3c(c2)CCC3)c(C)c1C (stereo unspecified) 11.2 µM [activator, partial curve]
Cc1ccc(Cl)cc1-n1ncc2c(NCCCc3ccccc3)ncnc21 12.6 µM [activator, partial curve]
CCOC(=O)c1[nH]c2ccccc2c1NC(=O)CC(C)(C)C 20 µM [activator, partial curve, poor fit]
CCOc1ncnc2c1[nH]c1ccccc12 14.1 µM [activator, single point]
COc1cc(NC(=O)CCc2ccccc2)nc(OC)n1 12.6 µM [activator, single point]
Cc1cc(C)c(S(=O)(=O)c2ccccc2C)c(Oc2ccccc2)n1 11.2 µM [activator, partial curve]
Cc1ccc(CC2(C)C(=O)Nc3ccc(OC(F)(F)F)cc32)cc1 (stereo unspecified) 14.1 µM [activator, single point]
O=C(c1ccccc1F)N1CCN(c2ccc([N+](=O)[O-])c3ncccc23)CC1 11.2 µM [activator, single point]
CCOc1ccc(C(=O)Nc2c(C(=O)N3CCN(c4ccccc4F)CC3)oc3ccccc23)cc1 6.31 µM [activator, partial curve]
COc1ccc(C2/C=C\CN(C(=O)C3CCCCC3)CC(=O)N2Cc2ccc(F)cc2)cc1 (stereo unspecified) 35.5 µM [activator, single point]
Cc1ccc(NC(=S)NCc2cccs2)cc1 35.5 µM [activator, partial curve]
Cc1cc(N2CCN(c3cccc(C(F)(F)F)c3)CC2)n2nc(-c3ccccc3)nc2n1 0.501 µM [activator, full curve]
COc1ccc(C(=S)NCS(=O)(=O)c2ccc(C)cc2)cc1 15.8 µM [activator, single point]
COc1ccc(NC(=O)c2ccco2)cc1NC(=O)COc1ccc(Cl)c(C)c1 22.4 µM [activator, partial curve]
COc1ccc(-c2ccc(-c3nnn(CC(C)=O)n3)cc2)cc1 2.82 µM [activator, partial curve]
N#CC1=C2N=C(N)c3ccccc3N2C2=C(C(=O)CCC2)C1c1cccc(Cl)c1 (stereo unspecified) 10 µM [activator, partial curve]
COc1ccc(Cl)cc1/C=C/c1ccc2cccc(O)c2n1 0.631 µM [activator, partial curve]
CCOc1nc(C)ccc1-c1noc(-c2cccnc2)n1 11.2 µM [activator, partial curve, poor fit]
COc1cccc(-c2nc(N3CCCCC3C)c3ccccc3n2)c1O (stereo unspecified) 22.4 µM [activator, single point]
FC(F)(F)c1nnc2ccc(N3CCCCCC3)nn12 17.8 µM [activator, single point]
O=C(Nc1ccccc1)c1nccn1Cc1ccc(F)cc1 11.2 µM [activator, partial curve]
CC(=O)c1ccccc1NC(=O)COC(=O)/C=C/c1ccc(C)o1 2.51 µM [activator, full curve]
Cc1cccc(N(Cc2ccccc2)C(=O)CCl)c1 35.5 µM [activator, single point]
Cc1ccc([N+](=O)[O-])cc1S(=O)(=O)N1CCn2cccc2C1c1ccccc1 (stereo unspecified) 28.2 µM [activator, partial curve]
COc1ccc(N(C)C(=O)c2cnc(N3CCN(c4ncccn4)CC3)c3ccccc23)cc1 14.1 µM [activator, single point]
COC(=O)CCS(=O)(=O)c1cc(Cl)ccc1Cl 15.8 µM [activator, single point]
Cc1cc(NC(=S)Nc2ccc(C)c(Cl)c2)n[nH]1 31.6 µM [activator, single point]
C=CCn1c(C)cc(C(=O)COC(=O)COc2ccccc2C#N)c1C 31.6 µM [activator, single point]
Cc1cccc(NC(=S)Nc2cccc3ccccc23)c1 17.8 µM [activator, single point]
CCCSc1ncc(Cl)c(C(=O)NCc2ccc(OC)cc2)n1 8.91 µM [activator, full curve, poor fit]
COC(=O)Nc1ccc2ccc3c(NC(=O)OC)ccc4ccc1c2c43 3.16 µM [activator, partial curve]
CCN1C(=O)[C@H]2[C@@H](c3ccc(C)cc3)N3C(=O)N(c4cccc(Cl)c4)C(=O)[C@@]3(CC(C)C)[C@H]2C1=O 6.31 µM [activator, partial curve]
Cc1ccc2c(c1)N(CC(=O)NC1CCC(C)CC1)C(=O)CO2 (stereo unspecified) 11.2 µM [activator, partial curve]
COC(=O)c1ccc(C2=NOC(C)(c3nnc(-c4cccc(Cl)c4)o3)C2)cc1 (stereo unspecified) 7.94 µM [activator, full curve, poor fit]
COC(=O)c1ccc2nc(-c3ccc(Cl)cc3)c(CC3CCCCC3)n2c1 3.16 µM [activator, partial curve]
O=c1[nH]c2ccccc2n1C1CCCCC1 6.31 µM [activator, partial curve]
Cn1c(SCCOc2ccccc2F)nc2ccccc2c1=O 12.6 µM [activator, single point]
CCc1ccc(C(=O)COC(=O)c2n[nH]c3ccccc23)cc1 35.5 µM [activator, partial curve]
CN(Cc1ccccc1)C(=O)COC(=O)c1cc(-c2ccc(Cl)s2)nc2ccccc12 25.1 µM [activator, partial curve]

Growth rescue (activation), inconclusive:
CCOC(=O)c1ccc(N2C(=O)CC(N3CCC(C(=O)OCC)CC3)C2=O)cc1 (stereo unspecified) -93% [activator]
O=S(=O)(NCCC1=CCCCC1)c1c(Cl)cccc1Cl 37% [activator]
